In the experiment the test system is A673/TR/shEF. The experiment can be described thus: cell viability (LOESS-normalised, relative to median of negative controls) (log2 ratio); higher = more viable cells (less compound effect), active = hit call of the paper (over 3 MAD below the median). The conditions noted are these: treatment time: 72 h. Put shortly:
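Viability of A673/TR/shEF Ewing sarcoma cells was determined by CellTiter-Glo luminescence. The cells, at 1,500 per well in 384-well plates, were grown with or without doxycycline from 24 h before compound addition to switch on EWS-FLI1 shRNA knockdown, then exposed for three days to library compounds at two or more concentrations or to DMSO controls. Signals were LOESS-corrected plate by plate, normalised to the negative-control median and log2-transformed.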

Setting [1] is: 0.103 µM, library screen: screen3, EWS-FLI1 expression: high (no doxycycline).
Where [2] appears, read: 0.103 µM, library screen: screen3, EWS-FLI1 expression: low (doxycycline-induced shRNA knockdown).
Setting [3] is: 0.308 µM, library screen: screen3, EWS-FLI1 expression: high (no doxycycline).
Setting [4] is: 0.308 µM, library screen: screen3, EWS-FLI1 expression: low (doxycycline-induced shRNA knockdown).
Where [5] appears, read: 0.926 µM, library screen: screen3, EWS-FLI1 expression: high (no doxycycline).
The mark [6] stands for this setting: 0.926 µM, library screen: screen3, EWS-FLI1 expression: low (doxycycline-induced shRNA knockdown).
Where [7] appears, read: 2.8 µM, library screen: screen3, EWS-FLI1 expression: high (no doxycycline).
The mark [8] stands for this setting: 2.8 µM, library screen: screen3, EWS-FLI1 expression: low (doxycycline-induced shRNA knockdown).
[9] abbreviates: 8.3 µM, library screen: screen3, EWS-FLI1 expression: high (no doxycycline).
[10] abbreviates: 8.3 µM, library screen: screen3, EWS-FLI1 expression: low (doxycycline-induced shRNA knockdown).
The mark [11] stands for this setting: 25 µM, library screen: screen3, EWS-FLI1 expression: high (no doxycycline).
Where [12] appears, read: 25 µM, library screen: screen3, EWS-FLI1 expression: low (doxycycline-induced shRNA knockdown).
The mark [13] stands for this setting: 0.25 µM, library screen: screen1, EWS-FLI1 expression: high (no doxycycline).
Setting [14] is: 0.25 µM, library screen: screen1, EWS-FLI1 expression: low (doxycycline-induced shRNA knockdown).
The mark [15] stands for this setting: 2.5 µM, library screen: screen1, EWS-FLI1 expression: high (no doxycycline).
Where [16] appears, read: 2.5 µM, library screen: screen1, EWS-FLI1 expression: low (doxycycline-induced shRNA knockdown).
[17] abbreviates: 0.25 µM, library screen: screen2, EWS-FLI1 expression: high (no doxycycline).
[18] abbreviates: 0.25 µM, library screen: screen2, EWS-FLI1 expression: low (doxycycline-induced shRNA knockdown).
The mark [19] stands for this setting: 2.5 µM, library screen: screen2, EWS-FLI1 expression: high (no doxycycline).
Where [20] appears, read: 2.5 µM, library screen: screen2, EWS-FLI1 expression: low (doxycycline-induced shRNA knockdown).

The structures appear in SMILES notation. Out of some 3,200 compounds screened, about 300 (9.4%) showed activity. This is a selection; strong and weak results do not stand in their true shares.

As to `OCC1OC(O)C(O)C(O)C1O` (stereo not drawn), the “cell viability (log2)” value was inactive: 0.00138 under setting [1]; inactive: 0.0347 under setting [2]; inactive: 0.0849 under setting [3]; inactive: 0.0509 under setting [4]; inactive: 0.0635 under setting [5]; inactive: 0.0529 under setting [6]. The “cell viability (log2)” value is inactive: 0.0615 under setting [7]; inactive: 0.0566 under setting [8]; inactive: 0.0472 under setting [9]; inactive: -0.0279 under setting [10]; inactive: 0.168 under setting [11]; inactive: 0.04 under setting [12].

For `CC[C@H]1OC(=O)[C@H](C)[C@@H](O[C@H]2C[C@@](C)(OC)[C@@H](O)[C@H](C)O2)[C@H](C)[C@@H](O[C@@H]2O[C@H](C)C[C@H](N(C)C)[C@H]2O)[C@](C)(O)C[C@@H](C)C(=O)[C@H](C)[C@@H](O)[C@]1(C)O`, the “cell viability (log2)” value is, setting by setting: under setting [1], inactive: 0.134; under setting [2], inactive: 0.0254; under setting [13], inactive: 0.0382; under setting [14], inactive: 0.0038; under setting [3], inactive: 0.123; under setting [4], inactive: 0.118. Further, the “cell viability (log2)” value runs as follows: under setting [5], inactive: 0.0939; under setting [6], inactive: 0.143; under setting [15], inactive: 0.0708; under setting [16], inactive: 0.0495; under setting [7], inactive: 0.149; under setting [8], inactive: 0.0858. The “cell viability (log2)” value under setting [9] was inactive: 0.16, the “cell viability (log2)” value under setting [10] was inactive: 0.114, the “cell viability (log2)” value under setting [11] was inactive: 0.0894 and the “cell viability (log2)” value under setting [12] is inactive: 0.171.

Regarding `CC1=C(/C=C/C(C)=C/C=C/C(C)=C/C=C/C=C(C)/C=C/C=C(C)/C=C/C2=C(C)CCCC2(C)C)C(C)(C)CCC1`, the “cell viability (log2)” value was inactive: 0.0893 under setting [13], inactive: 0.0636 under setting [14], inactive: 0.0911 under setting [15] and inactive: 0.187 under setting [16].

As to `Nc1ccc(O)c(C(=O)O)c1`, the “cell viability (log2)” value was inactive: 0.0813 under setting [1]; inactive: 0.122 under setting [2]; inactive: 0.183 under setting [3]; inactive: 0.141 under setting [4]; inactive: 0.124 under setting [5]; inactive: 0.118 under setting [6]. Moreover, the “cell viability (log2)” value under setting [7] is inactive: 0.063; the “cell viability (log2)” value under setting [8] was inactive: 0.188; the “cell viability (log2)” value under setting [9] is inactive: 0.021; the “cell viability (log2)” value under setting [10] is inactive: 0.0712; the “cell viability (log2)” value under setting [11] was inactive: 0.0772; the “cell viability (log2)” value under setting [12] was inactive: 0.096.

As to `CCCCC[C@@H](CC(=O)O)C(=O)O`, the “cell viability (log2)” value by setting is: under setting [13], inactive: 0.0401; under setting [14], inactive: 0.147; under setting [15], inactive: 0.16; under setting [16], inactive: 0.126.

Consider `Cc1cc(NC(=O)C2=C(O)c3ccccc3S(=O)(=O)N2C)no1`, for which the “cell viability (log2)” value is, setting by setting: under setting [13], inactive: 0.145; under setting [14], inactive: 0.17; under setting [15], inactive: 0.123; under setting [16], inactive: 0.0859.

In the case of `Cc1cc(C(C)(C)CC(C)(C)C)ccc1OCCOCC[N+](C)(C)Cc1ccccc1`, the “cell viability (log2)” value by setting is: under setting [13], inactive: 0.0514; under setting [14], inactive: 0.0498; under setting [15], inactive: 0.0273; under setting [16], inactive: 0.0435.

Take `CN(C)CCCN1c2ccccc2CCc2ccc(Cl)cc21`: the “cell viability (log2)” value runs as follows: under setting [1], inactive: 0.0151; under setting [2], inactive: 0.0554; under setting [13], inactive: 0.0507; under setting [14], inactive: 0.096; under setting [17], inactive: 0.145; under setting [18], inactive: 0.167. The “cell viability (log2)” value was inactive: 0.0121 under setting [3]; inactive: 0.0709 under setting [4]; inactive: 0.0261 under setting [5]; inactive: 0.0892 under setting [6]; inactive: 0.0898 under setting [15]; inactive: 0.0888 under setting [16]. The “cell viability (log2)” value runs as follows: under setting [19], inactive: 0.0722; under setting [20], inactive: 0.152; under setting [7], inactive: 0.0045; under setting [8], inactive: 0.0924; under setting [9], inactive: 0.0196; under setting [10], inactive: 0.0835. Also, the “cell viability (log2)” value was inactive: -0.0212 under setting [11] and inactive: 0.0906 under setting [12].

In the case of `COC(=O)C1=C(C)NC(C)=C(C(=O)OC)C1c1ccccc1[N+](=O)[O-]`, the “cell viability (log2)” value was inactive: 0.0781 under setting [13]; inactive: -0.0421 under setting [14]; inactive: 0.146 under setting [17]; inactive: 0.0938 under setting [18]; inactive: 0.122 under setting [15]; inactive: 0.0366 under setting [16]. Besides, the “cell viability (log2)” value under setting [19] is inactive: 0.151 and the “cell viability (log2)” value under setting [20] is inactive: 0.0213.

As for `COc1cc(-c2n[nH]c(=S)n2-c2ccc(C)cc2)cc(OC)c1OC`, the “cell viability (log2)” value was inactive: 0.094 under setting [13], inactive: 0.0811 under setting [14], inactive: 0.123 under setting [15] and inactive: 0.179 under setting [16].

Turning to `CNC(=O)[C@H]1O[C@@H](n2cnc3c(NCc4ccc(N)cc4)ncnc32)[C@H](O)[C@@H]1O`, the “cell viability (log2)” value was inactive: 0.0764 under setting [17], inactive: 0.129 under setting [18], inactive: 0.151 under setting [19] and inactive: 0.0652 under setting [20].

As for `NC(=NCc1ccc(Cl)c(Cl)c1)NC(=O)c1nc(Cl)c(N)nc1N`, the “cell viability (log2)” value under setting [17] is inactive: 0.134, the “cell viability (log2)” value under setting [18] is inactive: 0.0996, the “cell viability (log2)” value under setting [19] is inactive: 0.111 and the “cell viability (log2)” value under setting [20] was inactive: 0.073.

For the compound `O=C(Nc1cccc(Cl)c1)/C(=C\c1ccco1)NC(=O)c1cccs1`, the “cell viability (log2)” value by setting is: under setting [13], inactive: -0.0172; under setting [14], inactive: 0.0581; under setting [15], inactive: 0.0419; under setting [16], inactive: 0.0226.

For the compound `COc1cc2c(cc1O)CC[C@@H]1[C@@H]2CC[C@]2(C)[C@@H](O)CC[C@@H]12`, the “cell viability (log2)” value under setting [1] was inactive: 0.0202; the “cell viability (log2)” value under setting [2] is inactive: 0.0975; the “cell viability (log2)” value under setting [17] is inactive: 0.11; the “cell viability (log2)” value under setting [18] was inactive: 0.04; the “cell viability (log2)” value under setting [3] was inactive: 0.0934; the “cell viability (log2)” value under setting [4] is inactive: 0.0693. In addition, the “cell viability (log2)” value by setting is: under setting [5], inactive: -0.0172; under setting [6], inactive: 0.0926; under setting [19], inactive: 0.0437; under setting [20], inactive: 0.0893; under setting [7], inactive: 0.045; under setting [8], inactive: 0.00908. Further, the “cell viability (log2)” value by setting is: under setting [9], inactive: -0.104; under setting [10], inactive: -0.0169; under setting [11], active: -1.25; under setting [12], active: -0.177.

Consider `O=c1c(O)c(-c2ccccc2)oc2ccccc12`, for which the “cell viability (log2)” value reads like this: under setting [13], inactive: 0.0903; under setting [14], inactive: -0.0523; under setting [15], inactive: 0.153; under setting [16], inactive: 0.0869.

On to `COc1cc(=O)n(C)c2c(OCC(O)C(C)(O)OC)cccc12` (stereo not drawn), for which the “cell viability (log2)” value under setting [17] was inactive: 0.0868, the “cell viability (log2)” value under setting [18] is inactive: 0.119, the “cell viability (log2)” value under setting [19] is inactive: 0.0738 and the “cell viability (log2)” value under setting [20] is inactive: 0.114.

`CO[C@@]1(NC(=O)C(C(=O)O)c2ccc(O)cc2)C(=O)N2C(C(=O)O)=C(CSc3nnnn3C)CO[C@@H]21` (stereo partly drawn): the “cell viability (log2)” value by setting is: under setting [13], inactive: 0.0656; under setting [14], inactive: 0.0075; under setting [15], inactive: 0.163; under setting [16], inactive: -0.00521.

For the compound `Oc1cc(O)cc(/C=C/c2ccccc2)c1`, the “cell viability (log2)” value is inactive: 0.0674 under setting [13], inactive: 0.00318 under setting [14], inactive: 0.07 under setting [15] and inactive: 0.0614 under setting [16].

As to `COC(=O)C1=C(C)N=C2SCCC(=O)N2C1c1ccc(OC)cc1` (stereo not drawn), the “cell viability (log2)” value is inactive: 0.0178 under setting [13], inactive: 0.0759 under setting [14], inactive: 0.0162 under setting [15] and inactive: 0.0699 under setting [16].

For `C#C[C@]1(O)CC[C@H]2[C@@H]3CCC4=CC(=O)CC[C@@H]4[C@H]3CC[C@@]21C`, the “cell viability (log2)” value was inactive: 0.148 under setting [13], inactive: -0.0274 under setting [14], inactive: 0.138 under setting [15] and inactive: 0.146 under setting [16].

`O=[N+]([O-])c1ccc(Oc2ccc(Br)cc2)c(C(O)[P+](=O)O)c1` (stereo not drawn): the “cell viability (log2)” value runs as follows: (0.025 µM, library screen: screen1, EWS-FLI1 expression: high (no doxycycline)) inactive: 0.0442; (0.025 µM, library screen: screen1, EWS-FLI1 expression: low (doxycycline-induced shRNA knockdown)) inactive: 0.0701; under setting [13], inactive: 0.235; under setting [14], inactive: 0.0171; under setting [15], active: -0.289; under setting [16], inactive: -0.0253. The “cell viability (log2)” value is, setting by setting: (25 µM, library screen: screen1, EWS-FLI1 expression: high (no doxycycline)) active: -0.404; (25 µM, library screen: screen1, EWS-FLI1 expression: low (doxycycline-induced shRNA knockdown)) inactive: -0.0834.

The values above are taken from the supplement of paper PMC6089552.
